Results from the supplement of paper PMC10126150.
Values marked as one replicate rest on one cluster of the flow cell; about a third of the high ones do not repeat.

System: ATP
Test: switch fluorescence ratio, 500 uM ATP over buffer (Cy3 cluster intensity, sum of 5 cycles each) (fold (ratio)); higher = stronger signal-on switching upon ATP binding; sequences stand for … in TCGTCGGCAGCGTCAGATGTGTATAAGAGACAGTTTTTTTTTTTTTTTTTTTTTTTTT…TC
Conditions: aptamer strand: ATP DNA aptamer (quencher-CACCTGGGGGAGTATTGCGGAGGAAGG + anchor), 100 nM annealed; ATP concentration: 500 uM; one replicate
Summary of the method: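 Per cluster, summed Cy3 intensity from the target cycles was divided by that from the buffer cycles to give the fluorescence ratio, then averaged per switch-domain sequence. Clusters outside 100-1000 RFU were excluded. The Cy3-labelled switching-strand clusters, on a modified Illumina MiSeq flow-cell, were annealed to 100 nM quencher-labelled ATP aptamer and imaged in selection buffer, then after 15 min with 500 uM ATP at 22 °C, for five cycles with NaOH stripping and re-annealing between them.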
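Also: ATP exposure 15 min at 22 °C before imaging.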

| Sequence | switch fluorescence ratio |
| --- | --- |
| AACATATCGT | 1.1 |
| CACGTTCATC | 1.06 |
| GCCTGAGTAG | 1.02 |
| ATTGTCTGGT | 0.972 |
| GGTGTATTAT | 0.95 |
| GTCGTGATTT | 1.11 |
| GCGATCACCT | 1.16 |
| ACGTGCTTTG | 1.01 |
| TTTTTCTTG | 0.944 |
| CAAAACATGG | 1.04 |
| TGTTTCGGCT | 0.98 |
| GCTGTAGCGT | 0.993 |
| GATGGGACT | 1.05 |
| AGTCATGGGG | 0.992 |
| CTACGAAACG | 1.11 |
| TCATTGAAAT | 0.973 |
| ACCCGTGTGG | 1.07 |
| CGAGCATGTG | 1.08 |
| CTCCCGTGGA | 1.13 |
| ACGGCTCCGC | 1.51 |
| AATAACGAGT | 0.988 |
| AGGGGGCTT | 2.06 |
| CAGTTGACTG | 1.02 |

| Sequence | switch fluorescence ratio |
| --- | --- |
| GATTGGATAT | 1.02 |
| GTCGGGTCTG | 1.07 |
| GGGTAAGGG | 1.01 |
| TTATAGCGTT | 0.949 |
| TCGGAATTTA | 0.989 |
| CGTAGTTAC | 2.38 |
| TGGGCAAAT | 1.02 |
| TGGTTCTGTC | 1.01 |
| CAGGAACTAA | 0.97 |
| CGTTGCCCCT | 0.96 |
| AGTCAAGCTT | 0.994 |
| ACAGTAATTC | 1.27 |
| GCCCTACATG | 1.03 |
| GGTCATACAT | 1.01 |
| TCCGGATAAT | 0.998 |
| CTGTTTGTTA | 0.977 |
| AGTGGCATCT | 1.03 |
| TTAACACTCT | 0.948 |
| AGAACACAA | 1 |
| CTCACGTGTC | 1.04 |
| CAGGTACACC | 1.03 |
| ATACTTGACG | 1.08 |
| ACTGAGTACT | 1.05 |

| Sequence | switch fluorescence ratio |
| --- | --- |
| GATTGGTGCT | 1.02 |
| CTAAGGACTC | 0.976 |
| AAATAGAGTG | 0.978 |
| CGTGGCATG | 0.939 |
| TAATGGCGCG | 1.02 |
| TACATGAAAA | 0.987 |
| ACGTGATCTA | 1.04 |
| GTGTATGAAC | 1 |
| ACTTGCTAGT | 0.996 |
| CGCATAGCAG | 0.99 |
| CAAATCAGTT | 0.945 |
| CGGCAATCGG | 1.81 |
| AGAAACTCAA | 1.02 |
| CGACGTAGAG | 1.1 |
| TCAGGTGATA | 1.32 |
| TTGCATAAGG | 0.988 |
| AATAATATCC | 1.02 |
| TGGCCGGGAA | 1.08 |
| AGATTTATTA | 0.99 |
| AGCTGTCGCG | 0.957 |
| AGGCCATTAG | 0.984 |
| ATGTGGAATT | 0.986 |
| GTTATGAGGC | 1.01 |

| Sequence | switch fluorescence ratio |
| --- | --- |
| GAGAGGTCAG | 1.03 |
| TCGTACCAAG | 1.02 |
| ACGCCGTTTA | 1.03 |
| ATTTCTGTTC | 1.02 |
| GACCCTCTAG | 1 |
| TTGTGCGTTA | 1.01 |
| TTGACATCTT | 0.998 |
| GGGGCCTAAG | 1.1 |
| TAGCATTGGC | 0.969 |
| ATTTTTGGAA | 0.997 |
| AACGTTGTGG | 1.02 |
| GAGGAGGTAG | 1.02 |
| ACTAGTTTGT | 1.02 |
| TCCGGCAGAG | 1.1 |
| TTACTATGGT | 0.998 |
| GCGTCTGAAT | 0.99 |
| TCGTCTAGGA | 1.03 |
| CATTGGTGTT | 1 |
| TTGTTGGCAG | 1.04 |
| CAGGGCAGGA | 1.03 |
| GCATTCAAGG | 0.99 |
| CGAGTGACAA | 1.11 |
| TGAGATGTAT | 0.979 |

| Sequence | switch fluorescence ratio |
| --- | --- |
| TGACTCCCCT | 1.98 |
| TTCAGAAAT | 0.974 |
| CACGATAAAA | 1.04 |
| TGGAACTGCG | 0.984 |
| GCGACCAAGC | 1.01 |
| CGAAGGTAGT | 0.982 |
| CGTAGACCTC | 1.07 |
| ACGGTAATGA | 1.06 |
| CTTGTGTGCC | 0.968 |
| AGGTACGACT | 1.05 |
| TTGACTAGGG | 1.08 |
| TCAGTAGAGT | 1.03 |
| GCACGGCTAG | 1.02 |
| TGTGCGCATT | 1.02 |
| GCGCGTATAA | 1.03 |
| CTTCGGAGCT | 1.89 |
| GGTACGTGA | 1.13 |
| ATAAAGACTA | 1.02 |
| ATCCACGATA | 1.12 |
| CGCCTACTCA | 1.25 |
| CGAGCTTGTA | 0.987 |
| AACATTCGGC | 1.01 |
| CCCGGAAGCG | 1.01 |

| Sequence | switch fluorescence ratio |
| --- | --- |
| GTCGATAGAA | 0.995 |
| AGAGTCCTCC | 0.994 |
| TAACTGTGCT | 0.969 |
| TAAATTAGAC | 1.04 |
| GCGGGGGTT | 1 |
| CGATTTCCCA | 1.01 |
| TCGATAGTCG | 1.03 |
| GGACGGAGAA | 0.998 |
| CGTACGGTCA | 1.01 |
| TAAGCGAGTA | 0.973 |
| ATTCCTCAT | 1.11 |
| TAACGTAATC | 3.06 |
| GTTGTCTTC | 0.989 |
| TGTGCAAGAT | 1.22 |
| TTTCCAAGAG | 0.995 |
| TACGGTAGTG | 0.996 |
| GAGGGTCTAT | 1.04 |
| ACATCATTCG | 1.07 |
| TTGTATTGCG | 0.955 |
| TGTTTCAGTC | 0.981 |
| CGATCCGGTA | 1.02 |
| TGATTTGCTT | 0.997 |
| AATCCGCCAC | 2.2 |

| Sequence | switch fluorescence ratio |
| --- | --- |
| GGGACAGCGG | 1.03 |
| AGAAATCGAT | 0.978 |
| TCGGACCTC | 1.21 |
| GGCTACTAGG | 1.04 |
| TCGCATCCGG | 1.08 |
| CTTGTGCTTT | 0.99 |
| TATCCCGATT | 0.992 |
| GAATCAAATG | 0.993 |
| GGAAGGGTAG | 1 |
| CTATACGTCT | 0.99 |
| AAAACGGAAT | 1.02 |
| ACTGCTTTCT | 0.98 |
| CGAAGTAACA | 1.05 |
| GACGACAGTT | 1.03 |
| CCTCGTTTGG | 1.09 |
| TAAGTCTGCC | 0.959 |
| GTGGCTTATG | 0.965 |
| ACAAGGGATC | 1 |
| TTCTTACCTG | 0.99 |
